The list shows a part of the results.
Columns and labels:
Assay in all cases: glycan array binding signal (z-score within array); higher = stronger binding
Conditions in all cases: glycan notation: IUPAC condensed, linker removed
[1] = target: Neu5Ac(a2-6)GlcNAc(b1-4)GlcNAc(b1-4)GlcNAc
Outline: (§1)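 The Consortium for Functional Glycomics database supplied 3228 glycan arrays, of which those lacking an available protein sequence were dropped. The binding signal, a within-array Z-score, was averaged across arrays of the same protein sequence and across linkers. Negative scores can be read as non-binding.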

[2] = target: Neu5Ac(a2-8)Neu5Ac
Outline: as §1

[3] = target: Neu5Ac(a2-8)Neu5Ac(a2-3)Gal(b1-3)GalNAc(b1-4)[Neu5Ac(a2-3)]Gal(b1-4)Glc
Outline: as §1

[4] = target: Neu5Ac(a2-8)Neu5Ac(a2-3)Gal(b1-3)GalNAc(b1-4)[Neu5Ac(a2-8)Neu5Ac(a2-3)]Gal(b1-4)Glc
Outline: as §1

[5] = target: Neu5Ac(a2-8)Neu5Ac(a2-3)Gal(b1-4)Glc
Outline: as §1

[6] = target: Neu5Ac(a2-8)Neu5Ac(a2-3)Gal(b1-4)GlcNAc
Outline: as §1

[7] = target: Neu5Ac(a2-8)Neu5Ac(a2-3)[Gal(b1-3)GalNAc(b1-4)]Gal(b1-4)Glc
Outline: as §1

[8] = target: Neu5Ac(a2-8)Neu5Ac(a2-3)[GalNAc(b1-4)]Gal(b1-4)Glc
Outline: as §1

[9] = target: Neu5Ac(a2-8)Neu5Ac(a2-8)Neu5Ac
Outline: as §1

[10] = target: Neu5Ac(a2-8)Neu5Ac(a2-8)Neu5Ac(a2-3)Gal(b1-4)Glc
Outline: as §1

[11] = target: Neu5Ac(a2-8)Neu5Ac(a2-8)Neu5Ac(a2-3)[Gal(b1-3)GalNAc(b1-4)]Gal(b1-4)Glc
Outline: as §1

[12] = target: Neu5Ac(a2-8)Neu5Ac(a2-8)Neu5Ac(a2-3)[GalNAc(b1-4)]Gal(b1-4)Glc
Outline: as §1

[13] = target: Neu5Ac(a2-8)Neu5Ac(a2-8)Neu5Ac(a2-8)Neu5Ac(a2-3)[GalNAc(b1-4)]Gal(b1-4)Glc
Outline: as §1

[14] = target: Neu5Ac(a2-8)Neu5Gc(a2-3)Gal(b1-4)GlcNAc
Outline: as §1

[15] = target: Neu5Ac(b2-6)Gal(b1-4)GlcNAc
Outline: as §1

[16] = target: Neu5Ac(b2-6)GalNAc
Outline: as §1

[17] = target: Neu5Ac9Ac(a2-3)Gal(b1-4)GlcNAc
Outline: as §1

[18] = target: Neu5Ac9Ac(a2-6)Gal(b1-4)GlcNAc
Outline: as §1

[19] = target: Neu5Gc(a2-3)Gal(b1-3)GlcNAc
Outline: as §1

[20] = target: Neu5Gc(a2-3)Gal(b1-3)[Fuc(a1-4)]GlcNAc
Outline: as §1

[21] = target: Neu5Gc(a2-3)Gal(b1-4)Glc
Outline: as §1

[22] = target: Neu5Gc(a2-3)Gal(b1-4)GlcNAc
Outline: as §1

[23] = target: Neu5Gc(a2-3)Gal(b1-4)GlcNAc(b1-3)Gal(b1-4)GlcNAc(b1-2)Man(a1-3)[Neu5Gc(a2-3)Gal(b1-4)GlcNAc(b1-3)Gal(b1-4)GlcNAc(b1-2)Man(a1-6)]Man(b1-4)GlcNAc(b1-4)GlcNAc
Outline: as §1

[24] = target: Neu5Gc(a2-3)Gal(b1-4)[Fuc(a1-3)]GlcNAc
Outline: as §1

[25] = target: Neu5Gc(a2-6)Gal(b1-4)GlcNAc
Outline: as §1

[26] = target: Neu5Gc(a2-6)GalNAc
Outline: as §1

[27] = target: Neu5Gc(a2-8)Neu5Ac(a2-3)Gal(b1-4)GlcNAc
Outline: as §1

[28] = target: Neu5Gc(a2-8)Neu5Gc(a2-3)Gal(b1-4)GlcNAc
Outline: as §1

[29] = target: Neu5Gc(a2-8)Neu5Gc(a2-3)Gal(b1-4)GlcNAc(b1-3)Gal(b1-4)GlcNAc
Outline: as §1

[30] = target: Neu5Gc(a2-8)Neu5Gc(a2-6)Gal(b1-4)GlcNAc
Outline: as §1

[31] = target: Neu5Gc(b2-6)Gal(b1-4)GlcNAc
Outline: as §1

B1: CLECb-Precomplexed (Mus musculus), P43025 (protein)
chain: MAKNGLVLCILVVSLLLDQTDGYPSRMKARKHSKRRVKAKDDDLKSQVEKLWREVNALKEMQALQTVCLRGTKVHKKCYLASEGLKHYHEANEDCISKGGTLVVPRNSDEINALRDYGKRSLPGVNDFWLGINDMVTEGKFLDVHGFAVSFLNWDRAQPSGGKRENCVLFSQSAQGKWSDEACRSSKRYICEFIIPTRTRPLEQKLISEEDLAANDILDYKDDDDKV
glycan array binding signal (z-score) [1]: -0.456
glycan array binding signal (z-score) [2]: -0.545
glycan array binding signal (z-score) [3]: 0.041
glycan array binding signal (z-score) [4]: -0.594
glycan array binding signal (z-score) [5]: 0.106
glycan array binding signal (z-score) [6]: -0.324
glycan array binding signal (z-score) [7]: -0.221
glycan array binding signal (z-score) [8]: 1.22
glycan array binding signal (z-score) [9]: -0.333
glycan array binding signal (z-score) [10]: 0.021
glycan array binding signal (z-score) [11]: -0.476
glycan array binding signal (z-score) [12]: -0.473
glycan array binding signal (z-score) [13]: -0.152
glycan array binding signal (z-score) [14]: -0.143
glycan array binding signal (z-score) [15]: -0.315
glycan array binding signal (z-score) [16]: -0.514
glycan array binding signal (z-score) [17]: -0.451
glycan array binding signal (z-score) [18]: -0.001
glycan array binding signal (z-score) [19]: -0.28
glycan array binding signal (z-score) [20]: -0.096
glycan array binding signal (z-score) [21]: -0.211
glycan array binding signal (z-score) [22]: -0.188
glycan array binding signal (z-score) [23]: 0.148
glycan array binding signal (z-score) [24]: -0.483
glycan array binding signal (z-score) [25]: -0.412
glycan array binding signal (z-score) [26]: -0.159
glycan array binding signal (z-score) [27]: -0.13
glycan array binding signal (z-score) [28]: -0.162
glycan array binding signal (z-score) [29]: -0.347
glycan array binding signal (z-score) [30]: -0.456
glycan array binding signal (z-score) [31]: -0.414
